Assay results: the supplement of paper PMC12632987
In all, about 4,500 sequences were measured (“median log2 fold change of GCK-ALFA target abundance (FLAG IP / Myc IP barcode read proportion)”: median about 0.078, lowest 2% from about -0.6 on). The list shows a part of the results.

B1: GBRAP_184_5074 (protein)
chain: EVKEETLEVTNVAEAKAKVAALAEKIKDFKGDLVVHLKMPEFDKEIVAAVLDGLGAILKAGYASKVTLGIDAPATEEQVDFVLKRADELGVNVVLPLEEE
B2: GBRAP_83_6932 (protein)
chain: KEEITVAANKDNIKEMFDIAIDLSKEEGYEVNIDVITTKEDIETLIEAFEKLAKAGVNTELLIALEGATEEEAKELKEKLEEIAKKYGVNVKVEVIVVEP
B3: GBRAP_160_4423 (protein)
chain: GELVERVREILEEGLELVVELVEEGERDAALAAARVTAGEVLLEVDEDERVSEEAEEEVDRILDELIAELEANADATPEEVRAMLEEARERILAVLEKHL
B4: GBRAP_95_7066 (protein)
chain: EEDREIAEDLIDTAEDLVEIGLYEQAARAAKAAVEVLKEIGETGELALRAAEVLVKVAEATGDEEAAEAAKEVLERIREAGGDEERIKELEKRLEEAKKK
B5: GBRAP_78_6585 (protein)
chain: ELEELFDKIFAELDAAHALARQLPPDVRNEVLSELTEAASSLLDAEEDGNLEAELQEAIAHLNKALAIARAADHPVAPALAAELEAAKALAEEALKLVKE
B6: GBRAP_74_6535 (protein)
chain: SEELIEKIVAAIKAGKIEEAVKLLREAIENENEEDKVKALLAAAKTVVENADKLSDEDIIKLADALVELRDSVDDELLTDETWKAFAAVLALALAAEQKK
B7: GBRAP_184_5139 (protein)
chain: KVLREAIEAKTVEEAIKKAKEAFEKAKAEGAKLELFVFADGLSVEEIEKLMKEIKKLIEESGLTDAKVTLVVEADEEEADKIIEIADKYGIRVVVALEEE
B8: GBRAP_57_6472 (protein)
chain: SERLKKVEEHAEAALALIEAGAPVEEVLEEVRKMLEELSEETLRDILLIADPEAEYDISKEEAIERLLALVRAYLEAGDLEAVRRLVELIEGQAEMEATE

Target: GABARAP, O95166
Test: median log2 fold change of GCK-ALFA target abundance (FLAG IP / Myc IP barcode read proportion) (log2 ratio); each designed protein is fused to an ALFA-tag nanobody in HEK293 cells to bring the named protein to FLAG-tagged glucokinase (GCK); Myc marks an untargeted standard; higher = target protein stabilised (more abundant)
Details: target protein: 3xFLAG-MCP-GCK-ALFA reporter; HEK293 landing pad (RPLP)
In short: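 The readout is target abundance, the per-binder median log2 ratio of FLAG to Myc barcode read proportions. It came from HEK293 landing-pad cells carrying a recombined ALFA-nanobody-fused binder library, induced with 2 μg mL^−1 doxycycline and transfected with a plasmid for a FLAG-tagged target and a Myc-tagged standard. After 48 h, lysates were immunoprecipitated with anti-FLAG and anti-Myc, and circular RNA barcodes were reverse transcribed, amplified and sequenced. Each barcode needed a proportion of at least 10^−7 in both replicates and each binder at least 3 barcodes per replicate, a pseudocount of 10^−6 was added, and the replicates were pooled.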

Sequence of GABARAP, O95166 (O95166 whole entry, the tested form may be a part): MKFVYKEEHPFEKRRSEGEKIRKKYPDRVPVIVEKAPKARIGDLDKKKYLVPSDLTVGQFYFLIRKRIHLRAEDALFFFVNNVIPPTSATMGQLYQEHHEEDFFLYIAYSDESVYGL

Row | Binder | median log2 fold change
1 | B1 | 0.27
2 | B2 | 0.0347
3 | B3 | -0.116
4 | B4 | 0.142
5 | B5 | -0.105
6 | B6 | 0.0654
7 | B7 | 0.177
8 | B8 | 0.235
